# Test results: publication PMC4336329 (PLoS ONE, 2015)
# The whole screen tested about 310,000 compounds, of which about 14,000 (4.5%) showed an effect of 50% or more. The effect is printed as a negative number. The list shows a part of the results.
# Target: human ether-à-go-go-related gene (hERG) potassium channel (human, UniProt Q12809)
# Assay: primary screen, population patch clamp on CHO cells stably expressing hERG
# 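Further: peak tail current of the secondary pulse compared with the same well before compound.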
# human ether-à-go-go-related gene (hERG) potassium channel, sequence (Q12809 whole entry, looked up): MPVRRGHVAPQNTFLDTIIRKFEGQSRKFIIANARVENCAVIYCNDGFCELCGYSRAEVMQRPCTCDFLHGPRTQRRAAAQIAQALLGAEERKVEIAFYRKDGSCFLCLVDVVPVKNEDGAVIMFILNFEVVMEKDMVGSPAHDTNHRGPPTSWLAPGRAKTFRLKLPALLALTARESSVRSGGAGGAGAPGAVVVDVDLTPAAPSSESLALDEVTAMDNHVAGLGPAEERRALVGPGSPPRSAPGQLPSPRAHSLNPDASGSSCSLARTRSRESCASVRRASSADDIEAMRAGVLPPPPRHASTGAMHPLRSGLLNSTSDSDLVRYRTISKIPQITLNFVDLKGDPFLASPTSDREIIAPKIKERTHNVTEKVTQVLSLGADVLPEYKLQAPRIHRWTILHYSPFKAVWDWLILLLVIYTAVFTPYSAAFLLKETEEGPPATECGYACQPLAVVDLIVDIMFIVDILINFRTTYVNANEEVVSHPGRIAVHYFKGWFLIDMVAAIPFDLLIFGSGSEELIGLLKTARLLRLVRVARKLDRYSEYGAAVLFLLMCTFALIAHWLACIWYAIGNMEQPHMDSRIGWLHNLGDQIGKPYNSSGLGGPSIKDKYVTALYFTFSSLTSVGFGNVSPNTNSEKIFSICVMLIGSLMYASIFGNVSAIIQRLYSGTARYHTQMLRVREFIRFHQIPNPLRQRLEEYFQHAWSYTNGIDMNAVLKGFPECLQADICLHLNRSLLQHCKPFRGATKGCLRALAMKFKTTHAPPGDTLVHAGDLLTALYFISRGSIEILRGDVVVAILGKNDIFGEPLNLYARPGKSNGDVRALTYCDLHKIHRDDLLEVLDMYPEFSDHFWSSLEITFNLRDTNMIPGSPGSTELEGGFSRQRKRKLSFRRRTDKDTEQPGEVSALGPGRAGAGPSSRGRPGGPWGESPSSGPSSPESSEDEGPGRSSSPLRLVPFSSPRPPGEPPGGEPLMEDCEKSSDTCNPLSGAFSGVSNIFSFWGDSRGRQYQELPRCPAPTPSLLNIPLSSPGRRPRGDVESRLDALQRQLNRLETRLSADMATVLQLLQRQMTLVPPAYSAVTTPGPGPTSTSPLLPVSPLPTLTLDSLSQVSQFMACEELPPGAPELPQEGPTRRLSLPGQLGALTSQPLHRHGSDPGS
row,Compound,"hERG current change (%, negative = inhibition) at 10uM"
1,CCC(=O)Nc1ccc(S(=O)(=O)Nc2cccc(C)c2)cc1OC,-15.6%
2,C=CCn1c(SCc2ccc3c(c2)OCO3)nc2scc(-c3ccco3)c2c1=O,-0.351%
3,O=C(NCC1CCCO1)c1cccc(Oc2c(Cl)cccc2[N+](=O)[O-])c1 (stereo not shown),-0.562%
4,CCOC(=O)C1=C(C)N=C2c3ccccc3C(=O)C2C1c1ccc(C)cc1 (stereo not shown),12.7%
5,COc1ccc(NC(=O)C2CCCN2S(=O)(=O)c2ccc(F)cc2)cc1 (stereo not shown),-16.6%
6,CC(CC(=O)NCc1ccco1)S(=O)(=O)c1ccc2c(c1)CCN2C(=O)C1CC1 (stereo not shown),5.62%
7,COc1ccccc1NC(=O)c1oc2ccc(C)cc2c1C,14.1%
8,O=C(COc1ccc2c3c(c(=O)oc2c1)CCCC3)NCCN1CCOCC1,1.37%
9,CCOP(=O)(OCC)c1nc(/C=C/c2ccccc2)oc1NCc1ccc(OC)cc1,-13.1%
10,COc1ccccc1NS(=O)(=O)c1c(C(=O)N2CCCC2)c(C)n(C)c1C,14.8%
11,Clc1nc(CN2CCCCC2)nc2sc3c(c12)CCCC3,-23.1%
12,COCCn1c(C)cc(/C=C2/SC(=O)N(CC(=O)N3CCCC3)C2=O)c1C,-23.8%
13,COc1ccc(CC(=S)NCCc2ccccc2)cc1,8.33%
14,Cc1ccc(-c2cc(C(=O)N3CCOCC3)c3ccccc3n2)cc1,-3.91%
15,COc1ccc(CNC(=O)C2CCN(S(=O)(=O)c3ccc4c(c3)CC(C)N4C(C)=O)CC2)cc1 (stereo not shown),3.7%
16,NC(=S)Nc1cccc2[nH]ncc12,7.19%
17,C[C@H](NC(=O)c1nc[nH]c1C(=O)N1CC[NH2+]CC1)C(=O)OCc1ccccc1.[Cl-],11.6%
18,CC(CN1CCCC1)C(=O)NN (stereo not shown),0.0741%
19,Cc1csc(C2=C(O)CN(CCc3ccccc3)C2=N)n1,1.95%
20,COc1ccc(/C(C)=N/NC(=O)c2ccc(CSc3cccc4cccnc34)cc2)cc1OC,-21.2%
21,CCN(CC)CCN1C(=O)C(=O)/C(=C(/O)c2c(C)[nH]c(C(=O)OC)c2C)C1c1ccccc1OC (stereo not shown),20.8%
22,O=C(c1nc2ccccn2c1CN1CCN(c2ccccc2O)CC1)N1CCCC1,34.7%

row,Compound,"hERG current change (%, negative = inhibition) at 10uM"
1,c1coc(CNCCCN2CCOCC2)c1,-0.128%
2,O=C(CCSc1ccccc1)Nc1nnc(-c2ccccc2)o1,7.27%
3,CCCc1c(C(=O)N/N=C/c2ccco2)nnn1-c1nonc1N,11.6%
4,CCC1CCCCN1CCCNC(=O)Cn1cnc2sc(C)c(S(=O)(=O)N3CCC(C)CC3)c2c1=O (stereo not shown),3.65%
5,CCOc1cc(N2CCOCC2)c(OCC)cc1NC(=O)CSc1nccc(C)n1,-39.5%
6,Cc1cc(O)c(C=Nc2ccc(N3CCOCC3)cc2)c(C)c1Cl,18.5%
7,Cc1ccc(C(=O)N/C(=C\c2ccc(-c3ccccc3[N+](=O)[O-])o2)C(=O)NCCN(C)C)cc1,-55.4%
8,CCOC(=O)N1CCC(NC(=O)C(NS(=O)(=O)c2ccc3c(c2)CCN3C(C)=O)C(C)C)CC1 (stereo not shown),4.79%
9,N#Cc1ccc(C23CC4(C2)[C@H](CN(Cc2ccc(C(F)(F)F)cc2)[C@@H]4c2ccccc2)C3c2ccccc2)cc1 (stereo partly shown),13.5%
10,COc1ccc(CCNC(=O)c2ccc(S(=O)(=O)N3CCCCC3)cc2)cc1,9.55%
11,O=C(Cc1cccc2ccccc12)N/N=C/c1ccc(Sc2cccc3cccnc23)o1,2.87%
12,O=C(Cn1cnc2ccccc2c1=O)c1ccccc1,-0.492%
13,CC(C)CCNC(=S)Nc1ccc2nc3n(c(=O)c2c1)CCCCC3,-46.2%
14,O=C(CSc1nnc(-c2ccco2)o1)N1CCCCC1,12.3%
15,C[C@H](NC(=O)[C@@H]1Cc2ccccc2CN1)C(=O)NC1CCCCC1,13.3%
16,Cc1ccc(C(=O)C[n+]2cc(Br)cc(Br)c2)cc1.[Br-],-9.89%
17,COCCN(C(=O)CSc1nnc(-c2cccc(OC)c2)n1C)c1c(N)n(Cc2ccccc2)c(=O)[nH]c1=O,21.7%
18,CC(Oc1cc2oc(=O)c3c(c2cc1Cl)CCC3)C(=O)NCc1cccnc1 (stereo not shown),-4.94%
19,CCN(CC)S(=O)(=O)c1ccc(N2CCOCC2)c(NS(=O)(=O)c2ccc(C)cc2)c1,6.21%
20,COc1ccc(NS(=O)(=O)c2ccc(C)c(NC(=O)NC3CCCCC3)c2)cc1,-24.9%
21,CCN(CC(=O)Nc1ccc(NC(C)=O)cc1)C(=O)C12CC3CC(CC(Cl)(C3)C1)C2,-14.6%
